From PubChem BioAssay AID488969 (Vanderbilt High Throughput Screening Facility, 2010)
Over roughly 110,000 compounds, “z-score” has its median near -0.1; the highest 2% begin near 2. The list shows a part of the results. Calls of active or inactive are those of the source.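 The calls were made as follows: active = z-score in the third read window above 3 or below -3; inactive = the rest.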

Biological target: Metabotropic glutamate receptor 8 (Rattus norvegicus) (UniProt P70579)
Test: mGluR8 Gi/Go-coupled signaling modulation – cell-based, rat, thallium flux, HTS, primary screen (AID 488969)
Conditions: HEK293 rat mGluR8, GIRK (G protein-gated inwardly rectifying potassium channel) thallium flux, FluoZin2; at 10 µM; stronger effect = higher value; submaximal glutamate (EC20) added with thallium

Sequence of UniProt P70579 (P70579 whole entry, looked up): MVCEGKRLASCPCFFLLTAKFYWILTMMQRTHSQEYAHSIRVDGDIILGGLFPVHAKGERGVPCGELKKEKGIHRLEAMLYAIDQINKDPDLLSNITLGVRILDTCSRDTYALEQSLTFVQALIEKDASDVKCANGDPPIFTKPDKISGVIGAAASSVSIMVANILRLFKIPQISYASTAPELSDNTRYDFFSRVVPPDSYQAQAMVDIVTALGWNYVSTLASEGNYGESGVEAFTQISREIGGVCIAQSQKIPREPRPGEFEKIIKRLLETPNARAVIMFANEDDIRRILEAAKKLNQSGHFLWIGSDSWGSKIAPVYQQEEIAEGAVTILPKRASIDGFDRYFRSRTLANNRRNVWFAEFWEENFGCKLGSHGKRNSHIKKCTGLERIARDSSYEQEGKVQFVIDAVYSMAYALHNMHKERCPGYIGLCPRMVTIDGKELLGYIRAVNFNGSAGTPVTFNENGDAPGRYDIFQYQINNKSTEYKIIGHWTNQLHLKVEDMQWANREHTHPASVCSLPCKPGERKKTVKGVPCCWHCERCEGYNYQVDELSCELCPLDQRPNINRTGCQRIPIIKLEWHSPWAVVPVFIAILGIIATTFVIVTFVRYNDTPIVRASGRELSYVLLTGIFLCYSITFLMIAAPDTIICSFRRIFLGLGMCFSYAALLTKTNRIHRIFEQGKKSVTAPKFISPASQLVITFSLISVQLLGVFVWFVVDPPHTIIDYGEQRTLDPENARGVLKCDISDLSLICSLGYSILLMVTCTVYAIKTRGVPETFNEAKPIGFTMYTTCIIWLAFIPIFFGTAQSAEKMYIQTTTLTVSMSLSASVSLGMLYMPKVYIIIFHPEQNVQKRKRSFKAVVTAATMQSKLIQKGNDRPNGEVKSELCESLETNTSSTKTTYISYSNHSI

Compound	z-score
N#Cc1cnn(-c2nc(SCc3ccccc3)nc3sc4c(c23)CCCC4)c1N	-1.4
CN(C)C(=O)N1CCC(C(=O)NCc2ccccc2Cl)CC1	0.142
O=C(c1ccccc1S(=O)(=O)NCC(O)COc1ccc([N+](=O)[O-])cc1)N1CCCCC1 (centres undefined)	0.0392
CCOc1cc(/C=C2/NC(=O)N(CC(=O)Nc3cccc(C)c3)C2=O)ccc1O	-0.784
Cc1c(C#N)c(N)nc2c3c(sc12)NC(=O)CC3c1ccccc1 (centres undefined)	0.413
CCC(=O)NC(=S)Nc1ccc(NC(=O)c2ccc(C)c([N+](=O)[O-])c2)cc1	0.445
Nc1ccnc(C(F)(F)F)c1C(=O)c1ccccc1	0.223
Cc1c(O)c(CN2CCCCC2)cc2c3c(c(=O)oc12)CCC3	-0.0887
O=C(NC1CCCCCC1)c1cccc(COCC(F)(F)F)c1	-0.173
Cc1cnc(NC(=O)CCCc2nc3ccccc3s2)s1	-0.325
CN1C(=O)CC(Sc2ncccc2C(=O)O)C1=O (centres undefined)	0.323
COc1cccc(N2CCN(C(=O)CCn3c(=S)[nH]c4cc5c(cc4c3=O)OCO5)CC2)c1	-0.387
Cc1ccc(C(=O)N/N=C/c2ccc(-c3ccccc3[N+](=O)[O-])o2)cn1	-0.102
COc1ccc(Cn2cnc3c([N+](=O)[O-])c(C)c(C)cc32)cc1	-0.663
CSc1c(CC(=O)Nc2ccccc2Cl)n(Cc2ccccc2)c2ccccc12	0.0731
CC(NC(=O)CCCN1C(=O)c2ccccc2C1=O)c1ccc2c(c1)CCCC2 (centres undefined)	-0.0171
O=C(NCCCN1CCN(c2cccc(Cl)c2)CC1)c1cccc(N2CCCC2=O)c1	active: -3.25
COc1ccc(S(=O)(=O)Nc2cc(Sc3ncn[nH]3)c(O)c3ccccc23)cc1	0.366
CCCCCC/C(C)=C1/SC(=S)NC1=O	-1.89
CCCCCCc1nnc(N)s1	-0.267
CC(C)C1C(C#N)=C(N)Oc2n[nH]c(C(C)(C)C)c21 (centres undefined)	0.628
CCCC(=O)Nc1ccc(Cl)c(NC(=O)c2ccco2)c1	-0.898

Compound	z-score
Cc1ccc(Cn2c(C)cc3c(c2=O)C(c2cccs2)C(C#N)=C(N)O3)cc1 (centres undefined)	-0.161
c1ccc(Nc2nc(-c3ccncc3)cs2)nc1	-0.655
CSc1ccc(Cl)c(C(=O)OCC(=O)NC2CC2)c1	-0.245
O=C(c1ccccc1)N1CCN(C(=O)c2ccc(OC(F)(F)F)cc2)CC1	0.408
CCc1cccc(NC(=O)C2CCCC2)c1	0.366
CCC(=O)N1c2ccc(S(=O)(=O)CCC(=O)Nc3nccs3)cc2CC1C (centres undefined)	-0.207
COc1ccc(NC(=O)CSc2ccc3c(c2)OCCO3)cc1OC	0.00831
O=C(NCc1ccco1)c1cccn2c(=O)c3sccc3nc12	-1.77
CCc1ccc(/C=C/C(=O)c2ccc(N3CCOCC3)cc2)cc1	0.286
O=S(=O)(c1cccc2nsnc12)N1CCN(c2ncccn2)CC1	-0.0743
CC1(C)CC(=O)C(C=NCCN2CCN(CCCCS(=O)(=O)O)CC2)=C(O)C1	-0.0822
COc1ccc(Br)cc1/C=N/Nc1cccc(C(=O)O)c1	-0.59
COC(C(=O)Nc1ccc(S(=O)(=O)N2CCCCC2)cc1)c1ccccc1 (centres undefined)	-1.67
O=C(Nc1nc(-c2cccc(Br)c2)cs1)Oc1ccccc1	-0.0227
COc1ccc(-c2cc(C(=O)Nc3ccc(C)cc3)no2)cc1	0.77
Cc1ccc2nc(-c3ccc(NC(=O)CCN4C(=O)c5ccccc5C4=O)cc3)sc2c1	0.075
Cc1cc(NC(=O)CSc2nnc3c(C)cc4c(C)ccc(C)c4n23)no1	1.03
Cn1c(=O)[nH]c(=O)c2c1nc(NCCCO)n2CCCc1ccccc1	0.0396
COc1cccc(/C=N/NC(=O)C(=O)NCc2cccnc2)c1	-0.185
O=C1c2cccc(Cl)c2C(=O)c2c1cccc2N1CCCC1	-0.316
COc1cccc(-c2nc3ccccc3c(=O)o2)c1	-0.323
Cc1cc(Cl)c(S(=O)(=O)N(C)C)cc1OCC(N)=O	0.291

Compound	z-score
Cc1cc(C)c(N(C(=O)CN2C(=O)c3ccccc3S2(=O)=O)C(C(=O)NCC2CCCO2)c2ccc(F)cc2)c(C)c1 (centres undefined)	-0.14
Cc1noc(NS(=O)(=O)c2ccc(NC(=O)CCC3CCCCC3)cc2)c1C	0.14
CCOC(=O)c1c(C)n(C)c2cc(-c3ccc(F)cc3)c(O)cc12	-0.428
O=CN1CCN(C(=O)c2ccccc2F)CC1	-0.00956
Cc1cccc(NC(=O)COc2ccc3oc4c(c3c2)CCCC4)n1	-0.0747
O=C(Nc1ccccc1)c1ccc(S(=O)(=O)N2CCCCC2)cc1	-0.0563
O=C(NCC1CCCO1)C(c1cccs1)N(Cc1cccs1)C(=O)Cn1nnc(-c2cccs2)n1 (centres undefined)	-0.109
COc1ccccc1Nc1ncc(-c2cccs2)s1	1.05
CCCNc1ccc(S(=O)(=O)N(CC)CC)cn1	0.00468
CC(C)Sc1n[nH]c2nc3c(c(=O)n12)C1(CCCC1)Cc1ccccc1-3	-0.433
OC(Cn1nnc2ccccc21)Cn1c(C(F)(F)F)nc2ccccc21 (centres undefined)	1.03
O=C(CC1(O)C(=O)N(Cc2cccc3ccccc23)c2ccccc21)c1cccnc1 (centres undefined)	-1.19
Cc1cc(OC(F)F)ccc1NC(=O)Nc1ccc([N+](=O)[O-])cc1	-0.185
Cc1ccccc1Cn1ccc(=NCc2ccccc2)cc1	-0.0134
Cc1nc2c3ccccc3nc(NNC(=O)CCC(=O)NC(C)C)n2n1	0.0536
CCCCN1C(=O)CC(Sc2ccccc2C(=O)O)C1=O (centres undefined)	-0.231
O=C1CCc2cc(S(=O)(=O)N3CCC(C(=O)NCCC4=CCCCC4)CC3)ccc2N1	0.0449
COc1ccccc1OCCSc1nnnn1-c1ccc(C)cc1	-0.505
CCOC(=O)Nc1ccc(S(=O)(=O)Nc2cc(C)nc(C)n2)cc1	-0.12
CC(=O)c1ccc(NC(=O)C2CC(=O)N(Cc3ccccc3)C2)cc1 (centres undefined)	0.0516
O=C(COC(=O)C(Cc1ccccc1)NC(=O)c1ccc(Cl)cc1)c1ccc(Cl)cc1 (centres undefined)	-0.0652
CC(C)(C)n1nc2c(c1NC(=O)c1ccccc1F)CS(=O)C2 (centres undefined)	-0.492

Compound	z-score
CC(C)(C)NS(=O)(=O)c1ccc(NC(=O)NC2CCCCC2)cc1	-0.173
CCOc1cc(NC(=S)Nc2cccc(OC)c2)c(OCC)cc1NC(=O)C(C)C	0.0299
Cc1nnc(SCC(=O)Nc2sc3c(c2C#N)CCCC3)[nH]c1=O	-0.29
Cc1ccc(C(C)C)c(OCC(=O)NN=C2CCCCCCC2)c1	-0.223
N#Cc1ccc(NC(=O)COC(=O)C2Cc3ccccc3CN2C(=O)c2ccccc2)cc1 (centres undefined)	-0.202
COc1ccc(NC(=O)c2cc(S(=O)(=O)N(Cc3ccccc3)c3ccccc3)ccc2Cl)cn1	-0.258
Cc1c([N+](=O)[O-])cc(C(=O)Nc2ccc(Cc3ccncc3)cc2)cc1[N+](=O)[O-]	-0.015
CCOC(=O)c1ccc(NC(=O)CCNc2c(N3CCCC3)c(=O)c2=O)cc1	0.107
O=c1cc(-c2ccccc2)[nH][nH]1	0.252
C=CCn1c(-c2csc3ccccc23)n[nH]c1=S	-0.12
Cc1ccc(C)c(NC(=O)c2ccccc2Sc2ccc([N+](=O)[O-])cc2Cl)c1	0.179
O=c1[nH][nH]c(-c2ccccc2)c1C=Nc1ccccc1Cl	-0.543
O=C(c1ccco1)N1CCN(S(=O)(=O)c2ccc3c(c2)CCN3C(=O)C2CCC2)CC1	0.2
CC(=O)Nc1nc(C)c(-c2csc(Nc3ccc(O)cc3)n2)s1	-0.561
S=c1[nH]nc(-c2cc(-c3ccco3)[nH]n2)n1-c1ccccc1Cl	-0.465
COc1ccccc1/C=N/N(C(C)=O)c1nc(-c2ccc(F)cc2)cs1	-0.134
CCOC(=O)c1ccccc1NC(=O)c1ccc(F)cc1	-0.236
Cc1ccc(C)c(NC2=C(Cl)C(=O)OC2OC(=O)c2ccco2)c1 (centres undefined)	-1.27
Cn1nnnc1SCC(=O)N1c2ccccc2Sc2ccc(Cl)cc21	-0.658
N#Cc1nc(COc2ccc(F)cc2)oc1N1CCN(Cc2ccccc2)CC1	-0.205
O=c1oc2ccccc2cc1-c1csc(NN=C2CCCCC2)n1	-0.185
CCCCOC(=O)C1CCCC(C(=O)OCCCC)N1 (centres undefined)	1.39

Compound	z-score
CC(C)C(=O)NC(Nc1cc(C(F)(F)F)ccc1Cl)C(Cl)(Cl)Cl (centres undefined)	-0.457
COc1ccc(C(C(=O)NC2CCCCC2)N(Cc2cccs2)C(=O)Cc2c[nH]c3ccccc23)cc1OC (centres undefined)	0.273
CCOC(=O)c1nn(-c2ccc(Cl)cc2)c2nnc(Cc3ccccc3)c(=O)n12	-0.161
Cc1c(Cl)cccc1-n1ccnc1SCC(=O)O	-0.317
COc1cc(SC)ccc1C(=O)NCCOc1ccc(F)cc1	-0.486
Cc1ccccc1NC(=S)NCCc1c[nH]c2ccccc12	0.196
COC(=O)CSc1nc2ncc(Cl)cc2[nH]1	0.0701
CCNC(=O)/C(C#N)=C/c1c(N(Cc2ccccc2)Cc2ccccc2)nc2ccccn2c1=O	0.121
Cc1cc(C)nc(SCC(=O)c2cc3ccccc3oc2=O)n1	-0.151
O=C(CCN1C(=O)c2ccccc2C1=O)Nc1cc(F)ccc1F	0.0571
O=S(=O)(Cc1cccc(F)c1)c1c[nH]c2ccccc12	0.249
COc1ccc(OCc2cccc(C(=O)Nn3cc([N+](=O)[O-])cn3)c2)cc1	0.046
COc1ccc(-c2nc(CS(=O)(=O)CC(=O)NCCc3cc(OC)ccc3OC)c(C)o2)cc1	-0.299
Cc1cc(C(=O)COC(=O)c2ccccc2O)c(C)n1Cc1cccs1	-0.245
CN1C(=O)CC(C(=O)Nc2ccc(F)cc2)SC1=Nc1ccc2c(c1)OCO2 (centres undefined)	0.161
CC(CCc1ccccc1)NS(=O)(=O)c1ccccc1 (centres undefined)	-0.419
CCCCNC(=O)Cn1c2c(c(-c3ccccc3Cl)cc1=O)CCC2	-0.692
CCOc1ccccc1NC(=O)NC1CCN(CC(=O)Nc2ccc3c(c2)OCCO3)CC1	-0.67
COCCN1Cc2cccc(C(=O)NCc3ccccn3)c2C1=O	0.551
CCOC(=O)c1ccc(COc2nc3ccccc3nc2-c2ccccc2NC(C)=O)o1	-0.128
CCCOc1ccccc1NC(=O)CC1Nc2ccccc2NC1=O (centres undefined)	-0.508
